Source: patent publication US20180280527A1 (COVAGEN, published 2018)
Values joined by “and” are separate entries in the source; they are usually repeats but may differ in a detail not shown here. Equal entries are not always repeated.

T1: muFGFR3c-His (murine, UniProt Q61851 33-369)
T1 construct: Whole entry as named; also called murine FGFR3 splice variant c
T1 sequence: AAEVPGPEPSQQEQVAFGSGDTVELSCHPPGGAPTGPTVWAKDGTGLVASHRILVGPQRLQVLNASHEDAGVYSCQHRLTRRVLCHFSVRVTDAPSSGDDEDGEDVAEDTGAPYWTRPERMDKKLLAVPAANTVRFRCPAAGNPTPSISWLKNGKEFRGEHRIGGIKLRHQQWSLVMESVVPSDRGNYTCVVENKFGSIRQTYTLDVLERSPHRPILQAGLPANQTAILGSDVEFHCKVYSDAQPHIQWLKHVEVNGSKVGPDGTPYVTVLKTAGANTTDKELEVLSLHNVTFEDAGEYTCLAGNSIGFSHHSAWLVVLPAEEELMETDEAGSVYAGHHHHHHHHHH

T2: huFGFR3 on KMS-11 cells (human, UniProt P22607 23-806)
T2 chain: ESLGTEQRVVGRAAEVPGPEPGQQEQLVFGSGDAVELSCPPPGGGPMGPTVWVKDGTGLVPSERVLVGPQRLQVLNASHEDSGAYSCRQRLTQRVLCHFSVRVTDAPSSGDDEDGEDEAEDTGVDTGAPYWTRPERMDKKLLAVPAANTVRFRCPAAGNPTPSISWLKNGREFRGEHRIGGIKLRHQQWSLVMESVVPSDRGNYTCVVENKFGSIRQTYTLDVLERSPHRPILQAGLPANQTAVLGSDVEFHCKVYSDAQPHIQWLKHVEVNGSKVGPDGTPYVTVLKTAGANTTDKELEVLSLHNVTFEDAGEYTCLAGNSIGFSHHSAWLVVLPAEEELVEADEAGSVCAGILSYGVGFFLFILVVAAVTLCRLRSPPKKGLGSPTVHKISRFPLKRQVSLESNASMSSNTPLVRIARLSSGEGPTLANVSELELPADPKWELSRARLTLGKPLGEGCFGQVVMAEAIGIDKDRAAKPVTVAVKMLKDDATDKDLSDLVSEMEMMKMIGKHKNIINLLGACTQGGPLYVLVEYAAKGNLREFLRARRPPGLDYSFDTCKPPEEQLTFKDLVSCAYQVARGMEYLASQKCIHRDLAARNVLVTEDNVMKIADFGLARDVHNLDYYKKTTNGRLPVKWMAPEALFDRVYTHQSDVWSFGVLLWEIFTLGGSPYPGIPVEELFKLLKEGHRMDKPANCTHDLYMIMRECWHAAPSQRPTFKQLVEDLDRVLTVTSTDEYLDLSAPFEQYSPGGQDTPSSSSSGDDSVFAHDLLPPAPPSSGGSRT


Assays:
[1] = molecular target: T1, muFGFR3c-His; assay: ELISA on coated muFGFR3c-His, 200 nM Fynomer
Protocol: (§1) Different antigens were coated on the plate (Maxisorp plate; Nunc 439454): huFGFR3b-Fc (SEQ ID NO: 12), huFGFR3c-Fc (SEQ ID NO: 13), cyFGFR3c-Fc (SEQ ID NO: 14), muFGFR3c-His (SEQ ID NO: 15), huD1-Fc (SEQ ID NO: 16), huD2-Fc (SEQ ID NO: 17), huD1-D2-Fc (SEQ ID NO: 18). [0166] The plate was coated with 100 ul antigen at 5 μg/ml (0.5 μg/well), and incubated at 4° C. overnight. The wells were washed 3× with PBS before being blocked with 200 μl 4% MPBS for 1 hr at RT. The wells were washed again, and 20 μl 10% MPBS containing 15 μg/ml 9E10 was added, before the addition of 80 μl Fynomer at 250 nM (200 nM final Fynomer concentration). The wells were incubated for 45 min at RT, before washing and the addition of 100 μl anti-mouse IgG-HRP (Sigma A2554) diluted 1:1000 in 2% MPBS. The wells were incubated for 30 min at RT, before washing 3× with 0.1% Tween-20 in PBS, and then 3× PBS. 100 μl BM POD Blue substrate (Roche 11 484 281 001) was added to each well followed by 50 μl 1M H₂SO₄ to stop the reaction. The absorbance 450 nm-650 nm was recorded using a Tecan M1000 instrument.

[2] = molecular target: T2, huFGFR3 on KMS-11 cells; assay: flow cytometry on FGFR3-positive KMS-11 cells, Fynomer cross-linked with 9E10
[3] = molecular target: T3, huD2-Fc (human); assay: ELISA, antigen coated at 5 ug/ml, detection via 9E10
T3 construct: Whole entry as named; also called huFGFR3-D2; domain 2 of human FGFR3
Protocol: as §1

[4] = molecular target: T4, huD1-Fc (human); assay: as above
T4 construct: Whole entry as named; also called huFGFR3-D1; hFGFR3-D1
Protocol: as §1

[5] = molecular target: T5, huD1-D2-Fc (human); assay: ELISA on coated huD1-D2-Fc, 200 nM Fynomer
T5 construct: Whole entry as named; also called huFGFR3-D1D2; domain 1 and domain 2 of human FGFR3
Protocol: as §1

[6] = molecular target: T2, huFGFR3 on KMS-11 cells; assay: cell-based or functional assay
[7] = molecular target: T2, huFGFR3 on KMS-11 cells; assay: cell-based or functional assay
[8] = molecular target: T5, huD1-D2-Fc; assay: specificity ELISA
[9] = molecular target: T1, muFGFR3c-His; assay: specificity ELISA
[10] = molecular target: T2, huFGFR3 on KMS-11 cells; assay: flow cytometry, binding to FGFR3+ KMS-11 cells

| Binder | binding result [1] | EC50 [2] [nM] | binding result [3] | binding result [4] | binding result [5] | EC50 (nM) in internalization assay (cytotoxicity of Fynomer cross-linked with MMAF-conjugated 9E10 on KMS-11 cells) [6] | EC50 (nM) in internalization assay [7] [nM] | binding result [8] | binding result [9] | EC50 [10] [nM] |
| --- | --- | --- | --- | --- | --- | --- | --- | --- | --- | --- |
| FF44L65G12 (designed binder, C-terminal myc-hexahistidine tag; not shown: C-terminal myc-hexahistidine tag (pQE12 construct)) GVTLFVALYDYEVYGPTPMLSFHKGEKFQILRGGQGPYWEARSLTTGETGLIPSNYVAPVDSIQ | binds | 2.2 | no binding (tested: 200 nM final Fynomer concentration) | no binding (tested: 200 nM final Fynomer concentration) | binds | 2.5 nM | – | – | – | – |
| FF2L4C3 (designed binder, Expressed in E. coli with a C-terminal myc-hexahistidine tag; captured or cross-linked through anti-myc antibody 9E10 in the assays; also called parental Fynomer FF2L4C3; not shown: C-terminal myc-hexahistidine tag (pQE12 construct)) GVTLFVALYDYEVYGPTPMLSFHKGEKFQILNSSEGPYWEARSLTTGETGLIPSNYVAPVDSIQ | binds | 5.9 | no binding (tested: 200 nM final Fynomer concentration) | no binding (tested: 200 nM final Fynomer concentration) | binds | 28.5 nM and 21 nM and 26.4 nM | – | – | – | – |
| FF43L65D5 (designed binder, C-terminal myc-hexahistidine tag; not shown: C-terminal myc-hexahistidine tag (pQE12 construct)) GVTLFVALYDYEVYGPTPMLSFHKGEKFQILRKGKGPYWEARSLATGETGLIPSNYVAPVDSIQ | binds | 1.2 | no binding (tested: 200 nM final Fynomer concentration) | no binding (tested: 200 nM final Fynomer concentration) | binds | 0.8 nM | – | – | – | – |
| FF44L65B7 (designed binder, C-terminal myc-hexahistidine tag; not shown: C-terminal myc-hexahistidine tag (pQE12 construct)) GVTLFVALYDYEVYGPTPMLSFHKGEKFQILRRGSGPYWEARSLTTGETGLIPSNYVAPVDSIQ | binds | 0.6 | no binding (tested: 200 nM final Fynomer concentration) | no binding (tested: 200 nM final Fynomer concentration) | binds | 1.8 nM | – | – | – | – |
| FF44L65G7 (designed binder, C-terminal myc-hexahistidine tag; not shown: C-terminal myc-hexahistidine tag (pQE12 construct)) GVTLFVALYDYEVYGPTPMLSFHKGEKFQILRGGDGPYWEARSLTTGETGLIPSNYVAPVDSIQ | binds | 4.2 | no binding (tested: 200 nM final Fynomer concentration) | no binding (tested: 200 nM final Fynomer concentration) | binds | 2.6 nM | – | – | – | – |
| FF48L66G7 (designed binder, C-terminal myc-hexahistidine tag; not shown: C-terminal myc-hexahistidine tag (pQE12 construct)) GVTLFVALYDYEVYGPTPMLSFHKGEKFQILKGGSGPYWEARSLTTGETGLIPSNYVAPVDSIQ | binds | 2.3 | no binding (tested: 200 nM final Fynomer concentration) | no binding (tested: 200 nM final Fynomer concentration) | binds | 2.4 nM | – | – | – | – |
| FF40L54A5 (designed binder, also called alternative Fynomer; not shown: C-terminal myc-hexahistidine tag as for the screened Fynomers; not restated for this Fynomer) GVTLFVALYDYEVMSTTALSFHKGEKFQILSQSPHGQYWEARSLTTGETGWIPSNYVAPVDSIQ | – | – | – | – | – | – | 4.7 | binds | binds | 6.6 |
